# Assay results: ChEMBL document CHEMBL4888484, “Replenishing the malaria drug discovery pipeline: Screening and hit evaluation of the MMV Hit Generation Library 1 (HGL1) against asexual blood stage Plasmodium falciparum ,using a nano luciferase reporter read-out” (2022)
# In all, about 150,000 compounds went through this assay and about 540 (0.36%) showed an effect of 50% or more. The list shows a part of the results.
# Tested on: Plasmodium falciparum
# Test: Primary screen in NF54 nanoGlo assay, in single point, at 2uM, 72h; a lower Z score goes with more inhibition
# Type: functional, Erythrocyte
# Details: timepoint 72 hour
Compound,% Inhibition [%],Z score
Cc1cc(F)cc(NC(=O)N2CCn3nc(N)cc3C2)c1,-9,1.71
Cc1ccc2c(c1)CN(CCOc1cccc(C(=O)O)c1)CCO2,-17,3.43
CCC(CC)C(=O)N[C@@H](C)c1nnnn1C1CC1,-6,0.56
O=C(CCCc1ccccc1)N1CCC[C@H](c2nnn[nH]2)C1,-5,0.78
O=C1CN(C(=O)CN2CCCCc3c(Cl)cccc32)CCN1,-3,0.38
CCn1cnnc1C[C@H]1CCN(C(=O)CCc2ccc(OC)cc2)C1,-13,2.21
Cc1cc(C)c2[nH]c(C)c(CC(=O)NCc3cnc(C)cn3)c2c1,8,-0.78
c1cc2c(cc1-c1ccc(N3CCCC3)nn1)OCCO2,-20,1.93
O=C(O)c1cn(CCCc2ccccc2)nn1,-18,2.34
CCCN(C)C(=O)Cc1cccc(N)c1,-16,2.01
CN1C(=O)CC[C@H]1C(=O)Nc1nc(C2CC2)c(Cc2ccccc2F)s1,-5,0.46
CCOC(=O)C(NC(=O)CCc1nc(C)c(-c2ccccc2)o1)C(C)CC (stereo not given),-2,0.4
CC[C@@H]1Oc2cc(S(=O)(=O)N(C)CC(=O)N3CCCCCC3)c(C)cc2NC1=O,-7,1.18
Cn1cnnc1C[C@H]1CCCN(C(=O)NCc2ccc(F)cc2)C1,-20,2.6
Cc1ccc(NC(=O)C2CCN(S(=O)(=O)c3c(C)nn(CC(=O)N4CCCC4)c3C)CC2)c(C)c1,-15,1.39
COC[C@@H]1CN(C(=O)COc2ccccc2)C[C@H]1c1nc(C2CC2)no1,-12,2.18
Cc1nnc(CN(C)CCc2cnn(C)c2)s1,-12,1.19
COC[C@@H]1[C@H](C(=O)Nc2ccc3c(c2)OCCO3)CCC(=O)N1C,8,-1.44
Cc1cc(C(=O)NCc2csc(N)n2)cc(C)n1,-9,0.83
CCN(Cc1[nH]nc(C)c1Cl)[C@H]1COC[C@@H]1O,0,0.03
COc1cccc(N2C[C@@H](NC(=O)c3ccc(S(=O)(=O)N4CCOCC4)cc3)CC2=O)c1,-17,3.31
COc1cccc2c1NC(=O)C[C@H]2C(=O)Nc1cnn(C)c1C,-22,4.09

Compound,% Inhibition [%],Z score
C[C@H]1CN(S(=O)(=O)c2cccc(C(=O)NCCc3cnccn3)c2)CCN1,15,-1.91
Cc1ncc(C(=O)N2CC[C@H](C)N(Cc3ccccc3)CC2)c(C)n1,4,-0.69
O=C(COCc1nc2ccccc2[nH]1)NC[C@@H]1COc2ccccc2C1,-3,0.61
CCn1cccc1-c1noc(CNC(=O)c2cc(-c3ccc(F)cc3)nn2C)n1,-15,1.96
Cc1ccc(-c2nc(N3CCOCC3)ncc2-c2ccc(CC(=O)O)cc2)cc1,-6,0.82
CC[C@H]1CCCCN1C(=O)C1=CC(c2cc(OC)ccc2OC)=NS(=O)(=O)N1C,-6,1.15
CNc1nc2c(c(C(=O)N3CCCC3)n1)CN(Cc1sccc1C)CC2,3,-0.47
c1ccc(-c2n[nH]c([C@@H]3CCCN3c3ncnc4ccsc34)n2)cc1,-15,2.97
Cc1cccc(NC(=O)c2cc3ccc4ccc(C)nc4c3[nH]2)c1,-3,0.57
CC1(C)OB(c2cnsc2)OC1(C)C,2,-0.22
Cc1ccc([C@@H](C)CCN2CCC(c3ncon3)CC2)o1,-2,0.36
Cn1ccnc1-c1csc(NC(=O)CCc2ccoc2)n1,-10,1.25
C[C@]1(NS(=O)(=O)c2c(Cl)cc(F)cc2Cl)CCOC1,-6,1.09
Cc1cccc(NC(=O)Cn2cnc3c(c2=O)CCCC3)c1,-1,0.12
CN1c2ccccc2C(C)(C)[C@@]12CC(c1cccc(S(=O)(=O)N3CCCC3)c1)=NO2,-7,1.18
CCC(CC)[C@H](CNC(=O)Nc1ccn(CCOC)n1)N(C)C,5,-0.64
C[C@H]1CCc2cc(F)ccc2N1C(=O)c1cc(-c2ccc(Br)cc2)nc2ccccc12,2,-0.24
CCCc1cc(NC(=O)[C@@H]2CCCN2C(=O)c2ccccn2)n[nH]1,5,-0.78
CCn1cc(C)c(C(=O)O)c1CC(=O)Nc1ccc(F)c(Cl)c1,5,-0.62
Cc1cc(CNc2cc([C@H]3CCOC3)ncn2)ccc1F,-6,1.09
CCNC(=O)N(C)CC(=O)N1N=C(c2cccn2C)C[C@H]1c1ccc(C)cc1,3,-0.41
Cc1nc2ccccn2c1CNC(=O)N[C@H](c1cccnc1)C1CC1,-17,2.02

Compound,% Inhibition [%],Z score
Cc1occc1C(=O)NC1CC(C)(F)C1 (stereo not given),-6,1.18
COc1cc(CNCc2cccs2)ccc1OCc1ccccc1C,34,-0.5
Cc1cc(NC2c3ccccc3CCCC2C)n2ncnc2n1 (stereo not given),-10,0.86
CCc1ccccc1N1C(=O)CN(S(=O)(=O)c2ccccc2)C[C@@]1(C)C(=O)NC1CCCC1,-10,1.24
Cc1c(C(=O)N2c3ccccc3N(C)CC2(C)C)nnn1C(C)C,-6,0.78
Cc1cc(=O)n(CC(=O)Nc2cccc(C#N)c2)c(-c2ccncc2)n1,-15,2.86
O=C1N(CCOc2ccc(F)cc2)c2ccccc2NC12CCNCC2,3,-0.62
COCCn1c(-c2cnn(-c3ccccc3)c2)nc2ccccc21,-14,1.51
NC(=O)c1ccc(C(F)(F)F)n(Cc2cc3c(cc2Br)OCO3)c1=O,-13,2.08
Cc1ccc([C@@H]2CCCCCN2C(=O)Nc2cc(Cl)ccc2C)s1,6,-1.15
C#CCN(Cc1ccco1)[C@H]1CCN(CC(F)(F)F)C1=O,-8,1.07
CN1CCCN(c2ccc3ccc(F)cc3n2)CC1,-5,0.48
CC[C@H]1CN(c2ccncc2F)CCN1C,-8,1.72
O=C1CC[C@H](NC(=O)Nc2ccc(F)cc2F)CN1,2,-0.42
CN(Cc1nnc2ccccn12)c1ccccn1,8,-1.46
O=C1CCC(C(=O)NC(CC(F)(F)F)c2ccc(Cl)cc2)CN1 (stereo not given),-9,1.38
CC(O)C1CCN(C(=O)NCCc2ccc(-c3ccccc3)cc2)C1 (stereo not given),-9,0.97
CN1CC2CN(S(=O)(=O)c3cccc4nsnc34)CC(C1)O2,31,-3.76
CCOc1ncccc1CNC(=O)c1ccc2nc(-c3ccccc3)cn2c1,-1,0.22
O=C(Nc1ccc2nn(-c3ccc(Br)cc3)nc2c1)c1ccc2c(c1)OCCO2,-13,1.52
O=C(c1nnn2c1c(=O)[nH]c1cc(F)ccc12)N1CCN(c2ccccc2)CC1,6,-1.07
Cc1n[nH]c(C)c1[C@@H](N)C(=O)NCCCCc1ccccn1,-5,0.55

Compound,% Inhibition [%],Z score
CNC(=O)[C@@H]1CCCCN1Cc1cccn1Cc1cccs1,-12,1.1
NC(=O)[C@@H]1C[C@@H](F)CN1C(=O)CCc1ncc(-c2ccccc2)o1,-11,1.44
Cc1[nH]ncc1CNC(=O)[C@@]12CCCC[C@H]1N(C1CC1)S(=O)(=O)CC2,3,-0.58
CC(C)c1ccc(-c2nc(NCCN3CCCCC3)nc3nn(C)c(N)c23)cc1,-2,0.36
O=c1c2cccnc2ncn1[C@H]1CCN(Cc2ccccc2)C1,-6,0.76
CN1CCCC2(CC1)CCN(c1cnc3ccccc3n1)CC2,6,-1.27
CN(Cc1ccoc1)[C@@H](C(=O)O)c1ccccc1C(F)(F)F,-5,0.92
Cn1nc(C(F)(F)F)c(NC(=O)N2CCCCCCC2)c1Cl,13,-1.77
O=C1CCCCN1CCC(=O)N1CCO[C@@H](Cc2ccccc2Cl)C1,-2,0.24
CC[C@H](Nc1nc(C)nc2onc(C)c12)c1cnn(C)c1,7,-1.31
CC[C@@]1(C)CC(=O)c2cc(NC(=O)NCCc3csc(N)n3)ccc2O1,-21,2.2
Cc1ccc(S(=O)(=O)Nc2ccc(N3C(=O)C[C@H](c4ccc(OC(C)C)cc4)C3=O)cc2)cc1,-4,0.5
O=C(CCC(=O)N1CCn2nccc2C1)c1ccccc1,-23,2.66
NC(=O)Cc1nc(CN2CCCCCC2=O)n(-c2ccc3c(c2)CCC3)n1,5,-0.86
Cc1cc(C)cc(OCc2noc(CN(C(C)C)C3CC3)n2)c1,-7,0.92
O=C(CCc1cccnc1)Nc1cc(N2CCNC2=O)ccc1Cl,-11,2.13
CCC(NC(=O)NCC1CCC(O)C1)c1c(C)nn(C)c1C (stereo not given),-7,1.01
CC(=O)N1CCc2[nH]c3ccc(C(=O)NCc4c(C)nn(C)c4C)cc3c2C1,-1,0.15
COc1c(CNC2CCCC(C(F)(F)F)C2)c(C)nn1C (stereo not given),2,-0.29
